Measured values as given in US20240199692A1 (priority 2019, published 2024).
Part of at least one peptide drawing is inferred or uncertain, most often the ends. For at least one compound, name, drawing or mass did not settle the structure.

Molecular target: T1, MMP2 (Homo sapiens, UniProt P08253)
T1 sequence (P08253 110-660): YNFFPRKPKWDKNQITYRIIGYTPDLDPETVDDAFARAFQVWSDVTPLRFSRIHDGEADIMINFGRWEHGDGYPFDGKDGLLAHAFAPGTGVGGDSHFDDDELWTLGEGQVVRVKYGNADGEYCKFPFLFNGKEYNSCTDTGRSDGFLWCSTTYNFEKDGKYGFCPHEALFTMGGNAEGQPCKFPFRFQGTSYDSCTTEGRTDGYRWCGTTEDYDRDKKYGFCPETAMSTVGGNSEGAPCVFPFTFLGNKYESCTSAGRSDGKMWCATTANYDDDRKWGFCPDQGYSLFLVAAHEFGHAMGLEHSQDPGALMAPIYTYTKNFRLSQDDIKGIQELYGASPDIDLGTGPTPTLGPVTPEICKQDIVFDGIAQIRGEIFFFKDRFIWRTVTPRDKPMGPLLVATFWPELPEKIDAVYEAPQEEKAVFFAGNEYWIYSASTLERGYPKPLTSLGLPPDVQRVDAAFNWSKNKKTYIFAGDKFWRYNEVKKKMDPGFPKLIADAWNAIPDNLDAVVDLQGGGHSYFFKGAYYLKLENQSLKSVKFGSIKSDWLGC
Assay: Inhibitory effects on human MMP2 (Method 1), enzyme assay with MOCAc-Pro-Leu-Gly-Leu-A2pr(Dnp)-Ala-Arg-NH2 substrate, 96-well
Assay type: biochemical
Settings: Test Example No. 1-1 (Method 1, 96-well microplate)
Experimental: In a reaction solution [50 mmol/L Tris-HCl (pH 7.5), 150 mmol/L NaCl, 10 mmol/L CaCl2, 0.05% Brij L23], 100 μg/mL human recombinant MMP2 enzyme and 1 mmol/L 4-Aminophenylmercuric acetate were mixed together, and reacted at 37° C. for 60 minutes. The human MMP2 activated through the reaction was poured into a 96-well microplate to reach a final concentration of 0.7 or 7 ng/mL.

| Compound | IC50 |
| --- | --- |
| CC[C@H](C)[C@@H](C(=O)N1CCC[C@H]1CC(N)=O)N(C)C(=O)[C@H](CC(C)C)NC(=O)[C@@H]1C[C@H](N)CN1C(=O)C[C@@H](NS(=O)(=O)c1ccc(NC(=O)c2ccc(C(N)=O)cc2)cc1)C(=O)O [Compound 38] | 0.27 nM |
| CC[C@H](C)[C@@H](C(=O)N1CCC[C@H]1CC(N)=O)N(C)C(=O)[C@H](CC(C)C)NC(=O)[C@@H]1C[C@H](N)CN1C(=O)CC[C@@H](NS(=O)(=O)c1ccc(NC(=O)c2ccc(C(N)=O)cc2)cc1)C(=O)O [Compound 39] | 0.27 nM |
| CC(C)C[C@H](NC(=O)[C@H](C)NC(=O)[C@H](CC(=O)O)NC(=O)[C@H](CC(N)=O)NC(=O)CCCNS(=O)(=O)c1ccc(Oc2ccccc2)cc1)C(=O)N[C@@H](CCC(=O)O)C(=O)N1CCC[C@H]1CC(N)=O [Compound 64] | 0.06 nM |
| CC(C)C[C@H](NC(=O)[C@H](CCN)NC(=O)[C@H](CC(=O)O)NC(=O)[C@H](CC(N)=O)N(C)C(=O)CCCNS(=O)(=O)c1ccc(Oc2ccccc2)cc1)C(=O)N(C)[C@@H](CCC(=O)O)C(=O)N1CCC[C@H]1CC(N)=O [Compound 72] | 0.52 nM |
| CC[C@H](C)[C@@H](C(=O)N1CCC[C@H]1CC(N)=O)N(C)C(=O)[C@H](CCN)NC(=O)[C@H](C)NC(=O)[C@H](CC(=O)O)NC(=O)[C@H](CC(N)=O)NC(=O)CCCNS(=O)(=O)c1ccc(Oc2ccccc2)cc1 [Compound 74] | 8.1 nM |
| CC(C)C[C@H](NC(=O)[C@H](CCN)NC(=O)[C@H](CC(=O)O)NC(=O)[C@H](CC(N)=O)NC(=O)CCCNS(=O)(=O)c1ccc(Oc2ccccc2)cc1)C(=O)N(C)[C@@H](CCC(=O)O)C(=O)N1CCC[C@H]1CC(=O)O [Compound 76] | 0.055 nM |
| CC(C)C[C@H](NC(=O)[C@H](CCN)NC(=O)[C@H](CC(=O)O)NC(=O)[C@H](CCC(N)=O)NC(=O)CCCCNS(=O)(=O)c1ccc(Oc2ccc(C(N)=O)cc2)cc1)C(=O)N(C)[C@@H](CCC(=O)O)C(=O)N1CCC[C@H]1CC(N)=O [Compound 81] | 0.48 nM |
| CC[C@H](C)[C@@H](C(=O)N1CCC[C@H]1C(N)=O)N(C)C(=O)[C@H](CC(C)C)NC(=O)[C@H](C)NC(=O)[C@H](CC(=O)O)NC(=O)[C@@H]1CCN1C(=O)CCCNC(=O)c1ccc(Oc2ccccc2)cc1 [Compound 116] | 0.055 nM |
| CC[C@H](C)[C@@H](C(=O)N1CCC[C@H]1C(N)=O)N(C)C(=O)[C@H](CC(C)C)NC(=O)[C@H](C)NC(=O)[C@H](CC(=O)O)NC(=O)[C@@H]1CCCCN1C(=O)CCCNC(=O)c1ccc(Oc2ccccc2)cc1 [Compound 118] | 0.4 nM |
| CC[C@H](C)[C@@H](C(=O)N1CCC[C@H]1CC(N)=O)N(C)C(=O)[C@H](CC(C)C)NC(=O)[C@H](CCN)NC(=O)[C@H](CC(=O)O)NC(=O)[C@H](CC(N)=O)NC(=O)CCCNC(=O)c1ccc(Oc2ccc(C(N)=O)cc2)cc1 [Compound 214] | 0.096 nM |
| CNCC[C@H](NC(=O)[C@H](CC(=O)O)NC(=O)[C@H](CC(N)=O)N(C)C(=O)CCCNC(=O)c1ccc(Oc2ccc(C(N)=O)cc2)cc1)C(=O)N[C@@H](CC(C)C)C(=O)N(C)[C@@H](CCC(=O)O)C(=O)N1CCC[C@H]1CC(N)=O [Compound 220] | 0.12 nM |
| CC[C@H](C)[C@@H](C(=O)N1CCC[C@H]1CC(N)=O)N(C)C(=O)[C@H](CC(C)C)NC(=O)[C@H](CCN)NC(=O)[C@H](CC(=O)O)NC(=O)[C@H](CCC(=O)O)NC(=O)CCNC(=O)c1ccc(Oc2ccc(C(N)=O)cc2)cc1 [Compound 231] | 1.1 nM |
| CC[C@H](C)[C@@H](C(=O)N1CCC[C@H]1CC(=O)O)N(C)C(=O)[C@H](CC(C)C)NC(=O)[C@H](CCN)NC(=O)[C@H](CC(=O)O)NC(=O)[C@H](CC(N)=O)NC(=O)CCCNC(=O)c1ccc(Oc2ccc(C(N)=O)cc2)cc1 [Compound 236] | 0.1 nM |
| CC(C)C[C@H](NC(=O)[C@H](CCN)NC(=O)[C@H](CC(=O)O)NC(=O)[C@H](CCC(N)=O)NC(=O)CCCNC(=O)c1ccc(Oc2ccc(C(N)=O)cc2)cc1)C(=O)N(C)[C@@H](CCC(=O)O)C(=O)N1CCC[C@H]1CC(=O)O [Compound 237] | 0.53 nM |
| CC[C@H](C)[C@@H](C(=O)N1CCC[C@H]1CC(N)=O)N(C)C(=O)[C@H](CC(C)C)NC(=O)[C@H](CCN(C)C)NC(=O)[C@H](CC(=O)O)NC(=O)[C@H](CCC(N)=O)NC(=O)CCCNC(=O)c1ccc(Oc2ccc(C(N)=O)cc2)cc1 [Compound 249] | 8.9 nM |
| CC[C@H](C)[C@@H](C(=O)N1CCC[C@H]1CC(N)=O)N(C)C(=O)[C@H](CC(C)C)NC(=O)[C@H](CCN)NC(=O)[C@H](CC(=O)O)NC(=O)[C@@H](CC(N)=O)NC(=O)CCCNC(=O)c1ccc(Oc2ccc(C(N)=O)cc2)cc1 [Compound 251] | 0.18 nM |

| Compound | IC50 |
| --- | --- |
| CCNC(=O)C[C@@H]1CCCN1C(=O)[C@H]([C@@H](C)CC)N(C)C(=O)[C@H](CC(C)C)NC(=O)[C@H](CCN)NC(=O)[C@H](CC(=O)O)NC(=O)[C@H](CC(N)=O)NC(=O)CCCCNC(=O)c1ccc(Oc2ccc(C(N)=O)cc2)cc1 [Compound 254] | 0.18 nM |
| CC(C)C[C@H](NC(=O)[C@H](CCN)NC(=O)[C@H](CC(=O)O)NC(=O)[C@H](CCC(=O)O)NC(=O)CCCCCNC(=O)c1ccc(Oc2ccc(C(N)=O)cc2)cc1)C(=O)N(C)[C@@H](CCC(=O)O)C(=O)N1CCC[C@H]1CC(N)=O [Compound 258] | 0.94 nM |
| CC(C)C[C@H](NC(=O)[C@H](CCN)NC(=O)[C@H](CC(=O)O)NC(=O)[C@H](CC(N)=O)NC(=O)CCCCNC(=O)c1ccc(Oc2ccc(C(N)=O)cc2)cc1)C(=O)N(C)[C@@H](CCC(=O)O)C(=O)N1CCC[C@H]1CC(=O)O [Compound 259] | 0.083 nM |
| CC[C@H](C)[C@@H](C(=O)N1CCC[C@H]1CC(N)=O)N(C)C(=O)[C@H](CC(C)C)NC(=O)[C@H](CCN)NC(=O)[C@H](CC(=O)O)NC(=O)[C@H](CC(N)=O)NC(=O)COCCOCCNC(=O)c1ccc(Oc2ccc(C(N)=O)cc2)cc1 [Compound 262] | 0.14 nM |
| CC[C@H](C)[C@@H](C(=O)N1CCC[C@H]1CC(N)=O)N(C)C(=O)[C@H](CC(C)C)NC(=O)[C@H](CCN)NC(=O)[C@H](CC(=O)O)NC(=O)[C@H](CCC(=O)O)NC(=O)COCCOCCNC(=O)c1ccc(Oc2ccc(C(N)=O)cc2)cc1 [Compound 264] | 0.97 nM |
| CC(C)C[C@H](NC(=O)[C@H](CCN)NC(=O)[C@H](CC(=O)O)NC(=O)[C@H](CCC(=O)O)NC(=O)COCCOCCNC(=O)c1ccc(Oc2ccc(C(N)=O)cc2)cc1)C(=O)N(C)[C@@H](CCC(=O)O)C(=O)N1CCC[C@H]1CC(N)=O [Compound 265] | 2 nM |
| CC[C@H](C)[C@@H](C(=O)N1CCC[C@H]1CC(N)=O)N(C)C(=O)[C@H](CC(C)C)NC(=O)[C@H](CCN)NC(=O)[C@H](CC(=O)O)NC(=O)[C@H](CCC(N)=O)NC(=O)COCCOCCNC(=O)c1ccc(Oc2ccc(C(N)=O)cc2)cc1 [Compound 266] | 1.5 nM |
| CC(C)C[C@H](NC(=O)[C@H](CCN)NC(=O)[C@H](CC(=O)O)NC(=O)[C@H](CC(N)=O)NC(=O)CCCCNC(=O)c1ccc(Oc2ccc(C(N)=O)cc2)cc1)C(=O)N(C)[C@@H](CCC(=O)O)C(=O)N1CCC[C@H]1CC(=O)N1CCC1 [Compound 269] | 0.15 nM |
| CC[C@H](C)[C@@H](C(=O)N1CCC[C@H]1CC(=O)N1CCC1)N(C)C(=O)[C@H](CC(C)C)NC(=O)[C@H](CCN)NC(=O)[C@H](CC(=O)O)NC(=O)[C@H](CC(N)=O)NC(=O)CCCCNC(=O)c1ccc(Oc2ccc(C(N)=O)cc2)cc1 [Compound 273] | 0.071 nM |
| CC[C@H](C)[C@@H](C(=O)N1CCC[C@H]1CC(N)=O)N(C)C(=O)[C@H](CC(C)C)NC(=O)[C@H](CCN)NC(=O)[C@H](CC(=O)O)NC(=O)[C@H](CC(N)=O)N(C)C(=O)CCCNC(=O)c1ccc(Oc2ccc(C(N)=O)cc2)cc1 [Compound 279] | 0.084 nM |
| CC[C@H](C)[C@@H](C(=O)N1CCC[C@H]1CC(N)=O)N(C)C(=O)[C@H](CC(C)C)NC(=O)[C@H](CCN)NC(=O)[C@H](CC(=O)O)NC(=O)[C@@H](CC(N)=O)NC(=O)CCCCNC(=O)c1ccc(Oc2ccc(C(N)=O)cc2)cc1 [Compound 283] | 0.046 nM |
| CC(C)C[C@H](NC(=O)[C@H](CCN)NC(=O)[C@H](CC(=O)O)NC(=O)[C@@H](C)NC(=O)CCCCNC(=O)c1ccc(Oc2ccc(C(N)=O)cc2)cc1)C(=O)N(C)[C@@H](CCC(=O)O)C(=O)N1CCC[C@H]1CC(N)=O [Compound 286] | 1.15 nM |
| CC(C)C[C@H](NC(=O)[C@H](CCN)NC(=O)[C@H](CC(=O)O)NC(=O)[C@H](Cc1ccc(O)cc1)NC(=O)CCCCNC(=O)c1ccc(Oc2ccc(C(N)=O)cc2)cc1)C(=O)N(C)[C@@H](CCC(=O)O)C(=O)N1CCC[C@H]1CC(N)=O [Compound 289] | 0.29 nM |
| CC(C)C[C@H](NC(=O)[C@H](CCN)NC(=O)[C@H](CC(=O)O)NC(=O)CCNC(=O)CCCNC(=O)c1ccc(Oc2ccc(C(N)=O)cc2)cc1)C(=O)N(C)[C@@H](CCC(=O)O)C(=O)N1CCC[C@H]1CC(N)=O [Compound 295] | 2.8 nM |
| CC(C)C[C@H](NC(=O)[C@H](CCN)NC(=O)[C@H](CC(=O)O)NC(=O)[C@@H](CCN)NC(=O)CCCCNC(=O)c1ccc(Oc2ccc(C(N)=O)cc2)cc1)C(=O)N(C)[C@@H](CCC(=O)O)C(=O)N1CCC[C@H]1CC(N)=O [Compound 298] | 3.4 nM |
